First the molecules themselves.
B1: LINE1-full (parent)
chain: UACGUAGGUGGUUUUCCCCUGAUAGUGCUAAGGGGGCCUGGAAGUUUGGACUGGGCAGAGCUCAACACAGCGUGGCAAAGUGGCUGUGGCUAGACUGCCUCUCUGGAUUCCUCGUCACUCAGCAGGGCAUCUCUGAGAGAAAUGCC

The source gives no read counts; variants with many changes may rest on few reads.

The variants in the series derive from B1. As to the kind of experiment: self-cleavage, relative activity (ratio to wild type); higher = more cleavage; in vitro, sequencing; the parent is a self-cleaving ribozyme.
As for UACGCAGGUGGUUUUCCCCUGAUGGUGCUAAGGGGGCCCGGAAGUUUGGACUGGGCAGAGCUCAACACAGCGUGGCAAAGUGGCUGUGGCUAGACUGCCUCUCUGGAUUCCUCGACACUCAGCAGGGCAUCUCUGAGAGAAAUGCC, the self-cleavage is 0.5.

UACGCGGGUGGUUUUCCCCUGAUAGUGCUAAGGGGGCCUGGAAGUUUGGACUGGGCAGAGCUCAACACAGCGUGGCAAAGUGGCUGUGGCUAGACUGCCUCACUGGAUUCCUCGUCACUCAGCAGGGCAUCUCUGAGAGAAAUGCC: the self-cleavage was 1.87.

Take UACGAAGGUGGUUUUCCCCUGAUAGUGCUAAGGGGGCCUGGAAGUUUGGACUGGGCAGAGCUCAACACAGCGCGGCAAAGUGGCUGUGGCUAGACUGCCUCUCUGGAUUCCUCGACACUCAGCAGGGCAUCUCUGAGAGAAAUGCC: the self-cleavage came out at 1.72.

For the variant UACGCAGGUGGUUUUCCCCUGUUAGUGCUAAGGGGGCCUGGAAGUUUGGACUGGGCAGAGCUCAACACAGCGUGGCAAAGUGGCUGUGGCUAGACUGCCCCUCUGGAUUCCUCGUCACUCAGCAGGGCAUCUCUGAGAGAAAUGCC, the self-cleavage amounted to 0.55.

For UACGCAGGUGGUUUUCCCCUGGUAGUGCUAAGGGGGCCUGGAAGUUUGGACUGGGCAGAGCUCAACUCAGCGUGGCAGAGUGGCUGUGGCUAGACUGCCUCUCUGGAUUCCUCGUCACUCAGCAGGGCAUCUCUGAGAGAAGUGCC, the self-cleavage stood at 0.62.

For the variant UACGCAGGUGGUUUUCCCCUGGUAGUGCUAAGGGGGCCUGGAAGUUUGGACUGGGCAGAGCUCGACACAGCGUGGCAAAGUGGCUGUGGCUAGACUGCCUCUCUGGAUUCCUCGUCACUCAGCAGGGCAUCUCUGAGAGAAAUGCC, the self-cleavage came to 0.

On to UACGCAGGUGGUUUUCCCCUGAUUGUGCUAAGGGGGCCUGGAAGUUUGGACUGGGCAGAGCUCAACACAGCGUGGCAAAGCGGCUGUGGCUAGACUGCCUCUCUGGAUUCCUCGUCACUCAGCAGGGCAUCUCUGAGAGAAAUGCC, for which the self-cleavage is 2.09.

Consider UACGCAGGUGGUUUUCCCCUGAUAGUGCUGAGGGGGCCUGGAAGUUUGGGCUGGACAGAGCUCAACACAGCGUGGCAAGGUGGCUGUGGCUAGACUGCCUCUCUGGAUUCCUCGUCACUCAGCAGGGCAUCUCUGGGAGAAAUGCC, for which the self-cleavage was determined as 0.61.

For the variant UACGCAGGUGGUUUUCCCCUGUUAGUGCUAAGGGGGCCUGGAAGUUUGGACUGGGCAGAGCUCAACACAGCGUGGCAGAGUGGCUGUGGCUAGACUGCCUCUCUGGAUUCCUCGUCACUCAGCAGGGCAUCUCUGGGAGAAAUGCC, the self-cleavage is 1.08.

Turning to UACGCGGGUGGUUUUCCUCUGAUAGUGCUAAGGGGGCCUGGAAGUUUGGACUGGGCAGAGCCCAACACAGCGUGGCAAAGUGGCUGUGGCUAGACUGCCUCUCUGGAUUCCUCGUCACUCAGCAGGGCAUCUCUGAGAGAAAUGCC, the self-cleavage worked out at 0.

For the variant UACGCAGGUGGUUUUCCCCUGAUAGUGCUGAGGGGGCCUAGAAGUUUGGACUGGGCAGAGCUCAACACAGCGUGGCAAAGUGGCUGUGGCUAGACUGCCUCUCUGGAUUCCUCGUCACUCAGCAGGGCAUCUCUGAGAGAAAUGCC, the self-cleavage was determined as 0.84.

As to UACGCGGGUGGUUUUCCCCUGAUAGUGCUAAGGGGGCCUGGAAGUUUGGACUGGGCAGAGCUCAACACAGCGUGGCAAGGUGGCUGUGGCUAGACUGCCUCUCUGGAUUCCUCGUCACUCAGCAGGGCAUCUCUGAGAGAAAUGCC, the self-cleavage was 0.

Consider UACGCAGGUGGUUUUCCCCUGAUAGUGCUUAGGGGGCCUGGAAGUUUGGACUGGGCAGAGCUCAACACAGCGUGGCAAAGUGGCUGUGGCUAGACUGCCUCUCUGGAUUCCUCGUCACUCAGCAGGGCAUCUCUGGGAGAGAUGCC, for which the self-cleavage is 1.53.

On to UACGAAGGUGGUUUUCCCCUGAUAGUGCUAAGGGGGCCUGGAAGUUUGGACUGGGCAGAGCUCAACACAGCGUGGCAAAGUGGCUGUGGCUAGACUGCCUCUCUGGAUUCCUCGUCACACAGCAGGGCAUCUCUGUGAGAAAUGCC, for which the self-cleavage amounted to 0.7.

With UACGCAGGUGGUUUUCCCCUGCUAGUGUUAAGGGGGCCUGGAAGUUUGGACUGGGCAGAGCUCAACACUGCGUGGCAAAGUGGCUGUGGCUAGACAGCCUCUCUGGAUUCCUCGUCACUCAGCAGGGCAUCUCUGAGAGAAAUGCC, the self-cleavage was found to be 0.18.

Turning to UACGAAGGUGGUUUUCCCCUGAUAGUGCUAAGGGGGCCUGGAAGUUUGGACUGGGCAGAGCUCAACACAGCGAGGCAAAGUGGCUGUGGCUAGACUGCCUCUCUGGGUUCCUCGUCACUCAGCAGGGCAUCUCUGAGAGAAAUGCC, the self-cleavage came to 0.41.

With UACGCCGGUGGUUUUCCCCUGAUAGUGCUAAGGGGGCCUGGAAGUUUGGACUGGGCAGAGCUCAACACAGCGUGGCAAAGUGGCUGUGGCUAGACUGCCUCUCUGGAUUCCUCGUCACUCAGCUGGGCAUCUCUGAGAGAAAUGCC, the self-cleavage was 0.8.

In the case of UACGCAGGUGGUUUUCCCCUGGUAGUGCUAAGGGGGCCUGGAAGUUUGGACUGGGCAGAGCUCAACACAGCGUGGCAAGGUGGCUGUGGCUAGACUGCCCCUCUGGAUUCCUCGUCACUCAGCAGGGCAUCUCUGAGAGAAAUGCC, the self-cleavage was found to be 2.76.

In the case of UACGAAGGUGGUUUUCCCCUGAUAGUGCUAAGGGGGCCUGGAAGUUUGGACUGGGCAGAGCUCAACACAGCGUGGCAAAGUGGCCGUGGCUAGACUGCCUCUCUGGAUUCCUCGUCAUUCAGCAGGGCAUCUCUGAGAGAAAUGCC, the self-cleavage turned out to be 0.13.

Consider UACGAAGGUGGUUUUCCCCUGAUAGUGCUAAGGGGGCCUGGAAGUUUGGACUGGGCAGAGCUCAACACAGCGUGGCAAAGUGGCCGUGGCUAGACCGCCUCUCUGGAUUCCUCGCCACUCAGCAGGGCAUCUCUGAGAGAAAUGCC, for which the self-cleavage worked out at 0.

Values taken from the RNAGym collection of RNA variant scans (doi:10.7554/elife.90254).
